{"source": "paper PMC4336329", "about": "(PLoS ONE, 2015)", "note": "The campaign covered roughly 310,000 compounds. About 14,000 (4.5%) showed an effect of 50% or more. The effect is printed as a negative number. This is one part of the list.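 Also: peak tail current of the secondary pulse compared with the same well before compound.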"}
{"biological_target": "human ether-à-go-go-related gene (hERG) potassium channel (human, UniProt Q12809)", "sequence (Q12809 whole entry, looked up)": "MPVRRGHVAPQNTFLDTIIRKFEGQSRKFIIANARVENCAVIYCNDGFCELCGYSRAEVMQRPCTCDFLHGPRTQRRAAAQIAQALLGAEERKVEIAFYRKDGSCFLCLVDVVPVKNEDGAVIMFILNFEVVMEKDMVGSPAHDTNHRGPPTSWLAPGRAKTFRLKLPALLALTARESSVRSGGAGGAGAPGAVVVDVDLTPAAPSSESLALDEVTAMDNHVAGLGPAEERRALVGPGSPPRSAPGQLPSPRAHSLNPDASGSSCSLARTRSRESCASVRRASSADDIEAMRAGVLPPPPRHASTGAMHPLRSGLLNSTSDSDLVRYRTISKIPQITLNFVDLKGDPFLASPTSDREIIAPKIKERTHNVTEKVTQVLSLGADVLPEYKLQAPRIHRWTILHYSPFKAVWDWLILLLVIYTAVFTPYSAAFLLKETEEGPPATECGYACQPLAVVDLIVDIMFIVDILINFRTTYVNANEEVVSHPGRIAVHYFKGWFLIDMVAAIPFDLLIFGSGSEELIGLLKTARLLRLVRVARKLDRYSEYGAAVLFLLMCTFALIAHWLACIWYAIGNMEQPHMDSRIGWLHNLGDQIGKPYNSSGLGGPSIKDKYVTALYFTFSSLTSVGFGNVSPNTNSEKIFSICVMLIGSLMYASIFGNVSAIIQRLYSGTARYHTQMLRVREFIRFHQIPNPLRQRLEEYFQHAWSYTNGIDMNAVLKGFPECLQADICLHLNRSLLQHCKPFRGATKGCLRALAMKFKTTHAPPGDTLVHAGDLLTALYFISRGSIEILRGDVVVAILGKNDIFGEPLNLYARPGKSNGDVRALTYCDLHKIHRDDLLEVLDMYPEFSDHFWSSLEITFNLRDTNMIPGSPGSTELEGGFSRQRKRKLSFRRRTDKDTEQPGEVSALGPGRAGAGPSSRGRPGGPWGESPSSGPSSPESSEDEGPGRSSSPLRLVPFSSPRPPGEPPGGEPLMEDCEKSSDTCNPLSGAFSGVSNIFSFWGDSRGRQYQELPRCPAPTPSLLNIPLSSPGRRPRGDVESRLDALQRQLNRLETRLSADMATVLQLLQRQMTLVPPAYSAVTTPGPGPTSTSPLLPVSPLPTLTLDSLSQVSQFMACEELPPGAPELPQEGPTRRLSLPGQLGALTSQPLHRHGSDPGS", "experiment": "primary screen, population patch clamp on CHO cells stably expressing hERG", "units": {"hERG current change (%, negative = inhibition) at 10uM": "%"}}
{"smiles": "CCn1c(Cc2ccc(OC)cc2)nnc1SCc1nc2ccccc2c(=O)[nH]1", "hERG current change (%, negative = inhibition) at 10uM": -0.172}
{"smiles": "CCCOc1ccccc1C1CC(=O)Nc2cc3c(cc21)OCCO3", "note": "(centres unmarked)", "hERG current change (%, negative = inhibition) at 10uM": 3.65}
{"smiles": "CCN(C(C)=O)c1cccc2ccccc12", "hERG current change (%, negative = inhibition) at 10uM": 6.52}
{"smiles": "CCCCC(CCC(=O)O)(C(=O)OCC)c1csc(Nc2ccc(C)cc2)n1", "note": "(centres unmarked)", "hERG current change (%, negative = inhibition) at 10uM": -0.891}
{"smiles": "COc1nc(-c2ccccc2)c2c(c1C#N)CC(C)(C)OC2", "hERG current change (%, negative = inhibition) at 10uM": -11.2}
{"smiles": "CCOC(=O)C1CCN(c2ccc([N+](=O)[O-])c(C(C)=O)c2)CC1", "hERG current change (%, negative = inhibition) at 10uM": -11.8}
{"smiles": "COc1cc(CNc2ccc3[nH]c(=O)[nH]c3c2)ccc1OCc1ccccc1C", "hERG current change (%, negative = inhibition) at 10uM": 13.5}
{"smiles": "O=C(CN1CCN(Cc2ccccc2)CC1)NCc1ccc(Cl)cc1", "hERG current change (%, negative = inhibition) at 10uM": -61.1}
{"smiles": "Cc1cccc(OCCCC(=O)NCc2ccco2)c1", "hERG current change (%, negative = inhibition) at 10uM": 2.27}
{"smiles": "CC(C)CC(OC(=O)c1cccs1)C(=O)NCc1ccco1", "note": "(centres unmarked)", "hERG current change (%, negative = inhibition) at 10uM": 14.5}
{"smiles": "COc1ccc(C2C(=O)N(C3CCCCCC3)CC(=O)N2Cc2ccccc2)cc1OC", "note": "(centres unmarked)", "hERG current change (%, negative = inhibition) at 10uM": -32.3}
{"smiles": "COc1ccc2nc(NC(=O)c3cccc(N4C(=O)CCC4=O)c3)sc2c1", "hERG current change (%, negative = inhibition) at 10uM": -3.19}
{"smiles": "CC(C)(C)Cc1nnc(NC(=O)Cc2ccc([N+](=O)[O-])cc2)s1", "hERG current change (%, negative = inhibition) at 10uM": -7.2}
{"smiles": "CC1=C(C(=O)OC(C)C)C(C)C(C(=O)OC(C)C)=C(C)N1", "hERG current change (%, negative = inhibition) at 10uM": -16.9}
{"smiles": "COc1ccc(C2CCCN2C(=S)Nc2cccc(Cl)c2)cc1OC", "note": "(centres unmarked)", "hERG current change (%, negative = inhibition) at 10uM": -23.2}
{"smiles": "O=C(CSc1nc(O)cc(=O)n1-c1ccccc1)Nc1ccc(Br)cn1", "hERG current change (%, negative = inhibition) at 10uM": -2.56}
{"smiles": "CC(C)CN1C(Nc2ccccc2)=NC[C@@H]1C", "hERG current change (%, negative = inhibition) at 10uM": 13.3}
{"smiles": "Cc1nc2nc(C)c(CCC(=O)NC3CCCCC3)c(C)n2n1", "hERG current change (%, negative = inhibition) at 10uM": 14.7}
{"smiles": "CN1COc2ccc3ccccc3c2C1", "hERG current change (%, negative = inhibition) at 10uM": 5.28}
{"smiles": "CN(C)CCC(=O)c1cccc(Br)c1.Cl", "hERG current change (%, negative = inhibition) at 10uM": 14.8}
{"smiles": "CCOC(=O)c1csc(NC(=O)C(C)(C)C)n1", "hERG current change (%, negative = inhibition) at 10uM": -4.47}
{"smiles": "CC1Cc2ccccc2N1S(=O)(=O)c1c(N)n(C)c(=O)n(C)c1=O", "note": "(centres unmarked)", "hERG current change (%, negative = inhibition) at 10uM": 7.93}
{"smiles": "C=CCOC(=O)C1=C(C)Nc2nnnn2C1c1cc(OC)ccc1OC", "note": "(centres unmarked)", "hERG current change (%, negative = inhibition) at 10uM": -5.77}
{"smiles": "Nc1c2c(nc3ccn(-c4ccccc4)c(=O)c13)CCCCC2", "hERG current change (%, negative = inhibition) at 10uM": -58.8}
{"smiles": "Cc1ccc(-c2cc(C(=O)NCc3cccnc3)no2)cc1", "hERG current change (%, negative = inhibition) at 10uM": 3.78}
{"smiles": "CN1CC(=O)Nc2ccccc2C1=O", "hERG current change (%, negative = inhibition) at 10uM": 26.3}
{"smiles": "COc1ccc(CCNC(=O)CCOc2cc(C)ccc2C)cc1OC", "hERG current change (%, negative = inhibition) at 10uM": -1.05}
{"smiles": "COc1ccc(CN2CCNCC2)cc1.Cl", "hERG current change (%, negative = inhibition) at 10uM": 21.6}
{"smiles": "CC(=O)/C=C/c1ccc(C)o1", "hERG current change (%, negative = inhibition) at 10uM": 19.6}
{"smiles": "O=C(CSc1nc(-c2ccccc2)nc2ccc(F)cc12)Nc1cccc(C(=O)O)c1", "hERG current change (%, negative = inhibition) at 10uM": 2.54}
{"smiles": "O=C(NCc1ccccc1)N1CCOc2ccccc21", "hERG current change (%, negative = inhibition) at 10uM": 16.9}
{"smiles": "O=C1CC(C(=O)Nc2ccc(Cl)cc2)S/C(=N\\N=C\\c2ccco2)N1", "note": "(centres unmarked)", "hERG current change (%, negative = inhibition) at 10uM": 10.4}
{"smiles": "CCOC(=O)C1C2C=CC3(CN(C4CCCC4)C(=O)C13)O2", "note": "(centres unmarked)", "hERG current change (%, negative = inhibition) at 10uM": 17.3}
{"smiles": "CCN(CC)c1ccc(S(=O)(=O)N2CCOCC2)cc1NC(=O)c1cc(=O)c2ccccc2o1", "hERG current change (%, negative = inhibition) at 10uM": -2.32}
{"smiles": "CN1C(c2ccccc2)CCOS1(=O)=O", "note": "(centres unmarked)", "hERG current change (%, negative = inhibition) at 10uM": 7.49}
{"smiles": "CCOc1ccc(N2CC(C(=O)NCCN3C(=O)S/C(=C\\c4ccc(OC)c(OC)c4)C3=O)CC2=O)cc1", "note": "(centres unmarked)", "hERG current change (%, negative = inhibition) at 10uM": -21.3}
{"smiles": "Cc1c(Cl)cccc1NC(=O)CN1CCC(NC(=O)C2CCCCC2)CC1", "hERG current change (%, negative = inhibition) at 10uM": -0.0286}
{"smiles": "O=S(=O)(c1ccc(Oc2ncnc3scc(-c4ccccc4)c23)cc1)N1CCOCC1", "hERG current change (%, negative = inhibition) at 10uM": -0.503}
{"smiles": "CSc1nc2ccc(Cl)cc2[nH]1", "hERG current change (%, negative = inhibition) at 10uM": -1.63}
{"smiles": "Cc1cc(NC(=O)CCC(=O)N(CC(=O)NC2CCCC2)c2ccc(F)c(Cl)c2)no1", "hERG current change (%, negative = inhibition) at 10uM": -10.6}
{"smiles": "Cc1ccc(NC(=O)C2CCCN2C(=O)Oc2ccccc2)cc1", "note": "(centres unmarked)", "hERG current change (%, negative = inhibition) at 10uM": -5.96}
{"smiles": "CC(=O)c1ccc(NC(=O)c2ccc3snnc3c2)cc1", "hERG current change (%, negative = inhibition) at 10uM": 0.0655}
{"smiles": "Cc1onc(-c2ccccc2)c1C(=O)Nc1ccc2c(C)cc(=O)oc2c1", "hERG current change (%, negative = inhibition) at 10uM": -1.34}
{"smiles": "O=C(NCc1ccccc1)c1ccc2c(c1)S(=O)(=O)c1cc(Cl)ccc1C2=O", "hERG current change (%, negative = inhibition) at 10uM": -7.5}
{"smiles": "CSc1nc(C)cc(SC(C(C)=O)C(=O)Nc2ccccc2)n1", "note": "(centres unmarked)", "hERG current change (%, negative = inhibition) at 10uM": 17.6}
{"smiles": "COCCN(C(=O)c1ccccc1)c1nnc(-c2cccnc2)s1", "hERG current change (%, negative = inhibition) at 10uM": -4.56}
{"smiles": "N#Cc1c(N)c(C(=O)c2ccccc2)n2c1CCCC2", "hERG current change (%, negative = inhibition) at 10uM": -7.25}
{"smiles": "CC1=NN(c2ccccc2)C(=O)C1", "hERG current change (%, negative = inhibition) at 10uM": 31.8}
{"smiles": "Cc1cccc(C)c1NC(=O)C1(N(Cc2ccco2)C(=O)Cn2nnnc2N)CCCCC1", "hERG current change (%, negative = inhibition) at 10uM": 14.9}
{"smiles": "COc1ccc(N2CCC(CNC(=O)Nc3ccccc3)C2)cc1", "note": "(centres unmarked)", "hERG current change (%, negative = inhibition) at 10uM": -9.13}
{"smiles": "O=C1CC(c2ccccc2)Cc2nc(NC3CC3)ncc21", "note": "(centres unmarked)", "hERG current change (%, negative = inhibition) at 10uM": -7.97}
{"smiles": "COc1ccccc1CNC(=O)c1oc2ccc(S(=O)(=O)N3CCOCC3)cc2c1C", "hERG current change (%, negative = inhibition) at 10uM": -23.8}
{"smiles": "COc1cccc(CN2CC(C(=O)N3CCN(C(C)C)CC3)CCC2=O)c1", "note": "(centres unmarked)", "hERG current change (%, negative = inhibition) at 10uM": 2.95}
{"smiles": "C=CCSc1nnc(CCCCCN2C(=O)c3cccc4cccc(c34)C2=O)o1", "hERG current change (%, negative = inhibition) at 10uM": -17.2}
{"smiles": "c1ccc(Cn2cc(-c3cccnc3)cn2)cc1", "hERG current change (%, negative = inhibition) at 10uM": -1.33}
{"smiles": "CC(=O)C(C)n1c(CN2CCN(C(=O)c3ccco3)CC2)nc2c1c(=O)n(C)c(=O)n2C", "note": "(centres unmarked)", "hERG current change (%, negative = inhibition) at 10uM": 15.6}
{"smiles": "O=C(O)C(=O)O.O=[N+]([O-])c1ccccc1CNCCc1c[nH]c2ccccc12", "hERG current change (%, negative = inhibition) at 10uM": -22}
{"smiles": "N#Cc1cncc(-c2ccc3c(c2)OCCOCCOCCOCCOCCO3)n1", "hERG current change (%, negative = inhibition) at 10uM": -86.9}
{"smiles": "COc1cc(NS(=O)(=O)c2ccc(NC(=S)NC(=O)c3sc4cc(F)ccc4c3Cl)cc2)nc(OC)n1", "hERG current change (%, negative = inhibition) at 10uM": 11.4}
